GI50 and TGI data for one compound are collected here from PubChem BioAssay (NCI).

The experiment relates to NCI-H322M lung. In words: NCI-60 cell line screen, 48 h.

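Results reflect a 48-hour exposure of cells in 96-well plates to compound at five concentrations. At the GI50, growth is halved. TGI: concentration producing complete growth inhibition.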

Turning to `CCOc1ccc(/C=N/NC(=O)Cn2nc(Cc3ccc([N+](=O)[O-])cc3)c3onc(C)c3c2=O)cc1`, the GI50 is more than 100 µM and the TGI was more than 100 µM.
